The target of the test is full-length wild-type HPK1 with NanoBit tag (UniProt Q92918). Kind of test: split reporter; NanoBit in Jurkat cells expressing tagged full-length HPK1; test for HPK1 dimers.

Chains of the proteins cited; added tags and fusions are not shown. Lines headed by an entry give the natural chain unless they say otherwise; changes in a name come on top. A line that says so, or that is headed by a name, gives the form on record, which may keep a tag or linker.
full-length wild-type HPK1 with NanoBit tag (Q92918-2, form named): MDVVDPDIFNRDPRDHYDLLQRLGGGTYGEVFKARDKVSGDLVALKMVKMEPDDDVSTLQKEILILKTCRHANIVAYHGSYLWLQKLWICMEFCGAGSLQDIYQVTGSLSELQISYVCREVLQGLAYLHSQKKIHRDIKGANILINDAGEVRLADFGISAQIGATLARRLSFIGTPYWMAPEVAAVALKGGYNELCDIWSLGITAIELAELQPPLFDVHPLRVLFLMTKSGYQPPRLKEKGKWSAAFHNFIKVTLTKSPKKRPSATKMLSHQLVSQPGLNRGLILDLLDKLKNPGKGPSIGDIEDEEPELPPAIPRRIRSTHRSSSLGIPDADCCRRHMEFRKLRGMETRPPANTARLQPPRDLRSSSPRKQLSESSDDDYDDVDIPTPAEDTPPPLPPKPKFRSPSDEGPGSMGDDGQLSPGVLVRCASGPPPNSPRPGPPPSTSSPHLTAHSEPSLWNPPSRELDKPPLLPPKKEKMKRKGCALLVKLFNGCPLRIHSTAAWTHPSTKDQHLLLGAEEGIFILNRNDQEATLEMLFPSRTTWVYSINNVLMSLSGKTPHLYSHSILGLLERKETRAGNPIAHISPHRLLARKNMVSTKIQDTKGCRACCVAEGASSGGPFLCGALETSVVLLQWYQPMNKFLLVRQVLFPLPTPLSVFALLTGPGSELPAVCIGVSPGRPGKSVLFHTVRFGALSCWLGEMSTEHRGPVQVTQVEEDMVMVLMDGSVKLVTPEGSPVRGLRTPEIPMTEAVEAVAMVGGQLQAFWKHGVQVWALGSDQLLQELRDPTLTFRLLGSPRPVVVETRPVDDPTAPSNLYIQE

The values below come from article PMC11066036.

Results are given in words; binding and its absence hold for the method and conditions named. Binding seen in cells or lysates may run through a third protein.

“full-length wild-type HPK1 with NanoBit tag (from UniProt Q92918-2 1-821) (enzyme)”: the binding result is reported as “no binding”.
